About 120 (0.25%) of roughly 48,000 compounds were called active. Roughly 4% stayed inconclusive and do not appear here. The call rests on the fitted dose curve; in most records, active means well fitted activation curve with a large enough effect; inconclusive means small, poorly fitted or top-dose-only effect, or another doubt; inactive means no such curve, though single readings can be large or run the other way. The list shows a part of the results.
Assay: Primary qHTS for Identification of Small Molecule Activators of Huntingtin-Antisense Promoter Activity; further: nearly all actives have a fitted effect of over 55% in size
Conditions: HEK293 HTT-AS promoter firefly luciferase reporter, 24 h; series mostly up to 57.5 µM; activity change, positive = activation: at the top concentration
In short: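 Quantitative HTS used concentration series of up to 57.5 uM final on HEK293 luciferase reporter cells, 24 h at 37 degrees C. Readout was Dual-Glo firefly luminescence.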

Activity change, positive = activation, inactive:
COc1ccc(Nc2nc3ccc(Cl)cc3nc2-n2nc(C)cc2C)cc1 -3.31%, Cc1cccc(C)c1NC(=O)c1ccccc1C(=O)O -2.28%, CCOc1ccc(NC(=O)c2cc(C)nc3c2c(C)nn3-c2ccc(C)cc2)cc1 -1.36%, Cc1cccc(C(=O)N2CCc3cc(CNC(=O)CSc4ccccc4)ccc32)c1 -0.26%, CCOc1ccc(C(=O)NCCSc2c(C)[nH]c3ccccc23)cc1OCC -21%, COc1cccc(-n2c(SCc3ccc(F)cc3)nc3c([nH]c4ccccc43)c2=O)c1 -27.1%, COC(=O)c1ccc(NC(=O)CN(C)S(=O)(=O)c2ccc(Br)s2)cc1 -19.6%, COc1ccc(Cn2ccnc2SCC(=O)Nc2nnc(C)s2)cc1 -13.3%, Cc1nn2c(C)c(C(=O)NCc3ccc(OC(C)C)cc3)cnc2c1-c1ccc(F)cc1 -8.66%, CCN(CCCNC(=O)c1nn(-c2ccc(C)cc2)c(=O)c2c1c1ccccc1n2C)c1cccc(C)c1 6.92%, Cc1cccc(NC(=O)CN2C(=O)C(c3ccc(F)cc3)=NC23CCCCCC3)c1 -30.3%, CCn1c(=O)cc(OCC(=O)N2CCN(c3cccc(C)c3C)CC2)c2ccccc21 -0.155%, COc1cccc(CNC(=O)CN2C(=O)COc3ccc(S(=O)(=O)N4CCOCC4)cc32)c1 0.464%, Cc1ccc2c(c1)-c1c(c(C(=O)N3CCN(c4cc(C)ccc4C)CC3)nn1C)CS2 -17.2%, O=C(O)Cn1c(C(=O)Nc2nc(-c3ccccc3Cl)cs2)cc2ccccc21 -3.22%, Cc1ccc(CNC(=O)c2ccc(N3CCCC3)c(NC(=O)Nc3ccc(F)c(Cl)c3)c2)cc1 7.27%, CC(=O)c1c(C)oc2c1cc(NS(=O)(=O)c1ccc(C(C)(C)C)cc1)c1ccccc12 -26.3%, COc1ccc(NC(=O)Cn2c(=O)c3ccccc3n3nncc23)c(OC)c1 -5.11%, Cc1ccc(CNC(=O)C(C)n2nc(C)c3sc4ccccc4c3c2=O)cc1 (stereo not given) -23.6%, COc1cc2c(cc1OC)[C@@H]1CC(=O)[C@@H](CC(C)C)CN1CC2 -1.22%, C[C@](N)(Cc1ccc(O)cc1)C(=O)O -4.34% [at 6 µM, percent change from vehicle, -100% = no light], Cc1cc(NC(=O)Nc2nnc(N3CCCCCC3)s2)ccc1Br 22.2%, Cc1ccc(-c2nn(-c3ccccc3)c3c2cnc2ccccc23)cc1C -8.8%, CNC(=O)c1c(-c2ccc(F)cc2)oc2cc(N(CCO)S(C)(=O)=O)c(C3CC3)cc12 -36.6%, CC(C)c1ccc(NS(=O)(=O)c2cc(Br)cc3c2N(C(=O)C2CC2)CC3)cc1 -53.4%, COc1ccc(OC)c(-c2noc(N3CCN(c4ccc(Cl)cc4)CC3)n2)c1 -28.5%, Cn1cnc(S(=O)(=O)N2CCCC(C(=O)NCc3ccc(F)cc3)C2)c1 (stereo not given) -6.74%, Cc1ccc(S(=O)(=O)N(CCc2ccccc2)CC(=O)Nc2ccccc2C)cc1 -33.3%, NNC(=O)CP(=O)(c1ccccc1)c1ccccc1 -4.62%, CCOc1ccc(NC(=O)C(=O)NCCc2csc(-c3ccc(C(F)(F)F)cc3)n2)cc1 -4.34%, Cc1ccc(C(=O)N2CCn3c4c(c5cc(C)ccc53)CCCC42)cc1 (stereo not given) -24%, COc1ccc(CCNC(=O)c2ccc3c(c2)N(Cc2ccccc2)CCS3)cc1OC -32.3%, Cc1ccccc1CNC(=O)CSc1nnc(C)c2c(C)n(-c3ccccc3)nc12 -26.1%, COc1ccccc1CNC(=O)c1cc2c(s1)-c1ccc(Cl)cc1SC2 9.18%, O=C(COc1ccc(Cl)cc1)Nc1nnc(S(=O)(=O)N2CCCCCC2)s1 -21.2%, CCOc1cccc(CC(=O)N2CCc3c([nH]c4ccc(OC)cc34)C2c2ccc(F)cc2)c1OCC (stereo not given) -32%, CCCCOc1ccc(C2C(C(=O)Nc3ccccc3OC)=C(C)Nc3nnnn32)cc1OC (stereo not given) 5.5% [at 11.5 µM, percent change from vehicle, -100% = no light], Cc1ccn2c(Nc3ccc4c(c3)OCCO4)c(-c3ccccc3O)nc2c1 1.26%, Cc1ccc(S(=O)(=O)n2nc(C)c(S(=O)(=O)N3CCCCCC3)c2C)cc1C -8.93%, COc1ccccc1N1CCN(C(CNC(=O)C(=O)NCc2cccnc2)c2cccnc2)CC1 (stereo not given) -29.2%, CCN(CC)CCCNC(=O)CCC(=O)NNc1nc2ccccc2c2nc(C)nn12 -6.63%, Cn1cc(-c2cnn3c(N)c(Br)c([C@H]4CCCNC4)nc23)cn1 -31%, COc1cccc(CNC(=O)c2c(C)oc3ncnc(N4CCOCC4)c23)c1 -18.9%, COc1ccc(N2CCN(C(=O)C3Cc4ccccc4N3C(C)=O)CC2)cc1 (stereo not given) -23.2%, Cc1cc(C)cc(N2CCn3c2nc2c3c(=O)n(C/C=C/c3ccccc3)c(=O)n2C)c1 -4.57%, CCN(CC)CCCC(C)Nc1ccnc2cc(Cl)ccc12 (stereo not given), COc1cccc(CC(=O)Nc2ccc(-c3nc4ccccc4s3)cc2Cl)c1 16.4%, CCOc1cc(CNC(=O)C2CCN(c3nc4ccccc4[nH]3)CC2)cc(OCC)c1OCC -21.2%, Cc1ccc(C)c(NC(=O)CCOc2ccccc2)c1 -1.01%, CS(=O)(=O)c1ccc([C@@H](O)[C@@H](CF)NC(=O)C(Cl)Cl)cc1 -12.3%, Cc1ccc2nc(-c3ccc(F)cc3)c(NC(C)(C)CC(C)(C)C)n2c1 -66%, Cc1c(Cl)cccc1NC(=O)CSc1ccc(-c2ccccn2)nn1 -14.9%, Cc1nn2c(=O)cc(COC(=O)c3ccccc3NC(=O)c3cccs3)nc2s1 -12.2%, CC(C)NC(=O)c1ccc2c(c1)N(Cc1cccc(Cl)c1)C(=O)c1ccccc1S2=O (stereo not given) -5.9%, CCc1ccccc1NS(=O)(=O)c1ccc2c(c1)CCCN2C(=O)C1CCC1 -30.7%, COc1ccc(NC(=O)CN2CCN(Cc3ccccc3Cl)S2(=O)=O)cc1Cl -27.7%, CCCN1C(=O)C(O)(CC(=O)c2ccc(C(C)C)cc2)c2ccccc21 (stereo not given) -26.6%, COC(=O)c1sc2c(c1C)c(=O)n(-c1ccccc1)c(=O)n2CC(=O)Nc1cccc(C)c1 -27.4%, CN1CCN(Cc2c(O)ccc3cc(-c4ccc(Cl)cc4)c(=O)oc23)CC1 -8.41%, COc1cc(OC)c(NC(=O)N2CCC(CN3CCOCC3)CC2)cc1Cl 3.57%, CCN(C(=O)Cn1c(=O)oc2cc(S(=O)(=O)N3CCCCC3)ccc21)c1ccccc1 -16.9%, CCc1cccc(NC(=O)CCc2c(C)nc3c(-c4ccccc4)c(C)nn3c2C)c1 -14%, CC(C)OCCCNC(=O)Cc1ccc(NC(=O)N2CCCCc3ccccc32)cc1 -0.837%, CCc1ccccc1NC(=O)Cn1c(=O)n(-c2cccc(C)c2)c(=O)c2c1c1cc(OC)ccc1n2C -7.82%, CCOc1ccccc1N(C)C(=O)c1cc2c(s1)-c1ccccc1OC2 -19.7%, CCOC(=O)CC(NC(=O)c1cc2c(=O)n3cccc(C)c3nc2s1)c1ccc(OCC)c(OC)c1 (stereo not given) 0.992%, Cc1ccc(NC(=O)Cn2c(=O)n(CC(=O)NCCc3ccccc3)c(=O)c3ccccc32)cc1C -18.3%, CCCCc1nc(SCC(=O)Nc2ccc(S(N)(=O)=O)cc2)n[nH]1 -0.89%, CCc1cccc(NC(=O)Nc2cn(C)c(=O)c3ccccc23)c1 -31%, COc1cccc(NC(=O)C2CCN(S(=O)(=O)c3c(C)noc3C)CC2)c1 -1.71%, COc1ccc(-c2noc(CCC(=O)Nc3cccc(C)c3C)n2)cc1OC -31.3%, Cc1ccc(S(=O)(=O)c2cn(CC(=O)Nc3ccc(F)cc3)c3cc4c(cc3c2=O)OCO4)cc1 -15.5%, O=C(Cn1c(=O)n(-c2ccc(Cl)cc2)c(=O)c2c3c(sc21)CCCCC3)Nc1cccc(Cl)c1 -9.89%, O=C(NCc1cccc(Cl)c1)c1cc2c(s1)-c1ccccc1SC2 -15.3%, Cc1ccc2cccc(NC(=O)c3cccc4c(Br)cccc34)c2n1 -2.85%, COc1ccc(C)cc1NC(=O)C(=O)NCC(c1cccnc1)N1CCN(c2ccccc2F)CC1 (stereo not given) -29.6%, CCn1c(=O)n(-c2ccc3c(c2)OCO3)c2nc(-c3cccc(OC)c3OC)nc(C(N)=O)c21 -3.53%, CCCn1cc(S(=O)(=O)c2ccc(C)c(C)c2)c(=O)c2cc(F)c(N3CCC(C)CC3)cc21 -8.77%, COc1ccc(N2CCN(C(=O)c3ccc4c(c3)N(Cc3cccc(Cl)c3)C(=O)c3ccccc3S4(=O)=O)CC2)cc1 -6.04%, CC1=C(C(=O)Nc2cc(Cl)ccc2C)C2(CCCCC2)OC1=O -20.4%, O=C(NCCc1csc(-c2ccc(F)cc2)n1)c1ccco1 -4.39%, Cc1cc(C)n2nc(CNC(=O)c3ccccc3Cl)nc2n1 1.38%, Cc1cc(C)cc(NC(=O)CCc2nnc3n(C)c(=O)c4sccc4n23)c1 -1.74%, CCOc1ccc(NC(=O)C2CCN(c3nc4ccccc4[nH]3)CC2)cc1 -3.78%, CCSc1ccc(C(=O)Nc2ccc(-c3nc4ccc(C)cc4s3)cc2)cc1 -13.9%, COC(=O)c1c(SC)nc2ccccc2c1OCc1ccccc1Cl -24.9%, CCOc1ccc(CN2CCc3nc(N4CCN(c5ncccn5)CC4)ncc3C2)cc1OC -43.1%, CCC(CC)C(=O)OCc1cc(=O)n2nc(C3CCCCC3)sc2n1 13.3%, Cc1ccc(-c2c(C(=O)N3CCN(c4cccc(C)c4)C(C)C3)oc(=O)c3ccccc23)cc1 (stereo not given) -37.6%, COC(=O)C1=C(C)N=C2SCCC(=O)N2C1c1ccc(OCc2ccccc2)c(OC)c1 (stereo not given) -9.66%, CCOC(=O)c1c(C)[nH]c(C)c1S(=O)(=O)N(C)CC(=O)N1CCN(c2ccc(Cl)cc2)CC1 -9.42%, CCOc1ccc(N2C(=O)CS(=O)(=O)C23C(=O)N(Cc2cccc(Cl)c2)c2ccccc23)cc1 (stereo not given) -24.8%, CC(C)(C)OC(=O)N1CCC(c2c(C(=O)NCCc3ccsc3)cnn2-c2ccccc2Cl)CC1 -18.9%, CCc1c(C)nc2nncn2c1Nc1ccc(Cl)cc1 -32.9%, CCc1nc2ccccc2n2c(-c3ccccc3)c3c(=O)n(C)c(=O)n(C)c3c12 -7.11%

— PubChem BioAssay AID1508624 (National Center for Advancing Translational Sciences (NCATS), 2021)
